# Hit rate of the full screen: of about 410,000 compounds, about 6,400 (1.6%) were called active. Inconclusive results, whose numbers are uncertain, are shown with a selection of clear calls. The call rests on the fitted dose curve; in most records, active means well fitted inhibition curve with a large enough effect; inconclusive means small, poorly fitted or top-dose-only effect; inactive means no such curve, though single readings can be large or run the other way. No potency is given beside an inconclusive call; the fits are too rough.
# Biological target: Glucagon-like peptide 1 receptor (Homo sapiens) (UniProt P43220)
# Test: qHTS of GLP-1 Receptor Inverse Agonists (Inhibition Mode); further: nearly all actives have a fitted effect of over 55% in size
# Conditions: HEK293 GLP-1R CRE-luciferase, luminescence, 24 h, GLP-1R form is constitutively active; series mostly up to 38.3 µM
# How it was run: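 GLP-1R inverse agonism mode: basal reporter luminescence in engineered HEK293 cells measured after one day of compound exposure at 37 deg C, with a 12 min room-temperature detection step.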
# Potency means the concentration at half of the fitted maximal effect; tags describe the fitted curve by direction and shape.
# UniProt P43220, sequence (P43220 whole entry, looked up): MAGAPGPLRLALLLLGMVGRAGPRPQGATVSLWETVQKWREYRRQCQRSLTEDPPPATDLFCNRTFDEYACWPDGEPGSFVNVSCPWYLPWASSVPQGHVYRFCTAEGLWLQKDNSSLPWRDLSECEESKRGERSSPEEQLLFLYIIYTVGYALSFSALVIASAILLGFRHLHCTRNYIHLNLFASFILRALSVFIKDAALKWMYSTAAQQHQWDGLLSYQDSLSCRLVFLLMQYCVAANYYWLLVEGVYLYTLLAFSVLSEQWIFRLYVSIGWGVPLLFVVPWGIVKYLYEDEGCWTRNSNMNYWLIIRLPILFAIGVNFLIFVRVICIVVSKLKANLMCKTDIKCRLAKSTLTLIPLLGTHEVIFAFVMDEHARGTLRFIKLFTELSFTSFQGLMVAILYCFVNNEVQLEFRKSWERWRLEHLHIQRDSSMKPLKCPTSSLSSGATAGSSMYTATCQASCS
row,SMILES,Potency
1,Nn1c(SCc2c(F)cccc2F)nnc1-c1ccccn1,inactive
2,CC/C(=N\NC(N)=O)c1ccc(OC(F)F)cc1,inactive
3,COc1ccc(S(=O)(=O)N2CCCC2CNC(=O)C(=O)Nc2cccc(F)c2)cc1 (stereo not given),"inconclusive [inhibitor, single point]"
4,CCCc1cc(=O)oc2cc(OC(=O)CN3C(=O)NC4(CCCC4)C3=O)ccc12,inactive
5,O=C(/C=C/c1cn(-c2ccccc2)nc1-c1cccc(Cl)c1)N1CCN(c2ccccn2)CC1,active: 7.08 µM
6,CCN(c1cccc(C)c1)S(=O)(=O)c1c(C)nc2sc(C)cn2c1=O,inactive
7,Cc1nc2c(OCc3ccc(C(F)(F)F)cc3)cccn2c1N(C)C(=O)CCC1CCCC1,"inconclusive [inhibitor, single point]"
8,O=C1CCSC2(C(=O)N(Cc3ccc(F)cc3)c3ccccc32)N1c1cccc(F)c1 (stereo not given),"inconclusive [inhibitor, single point]"
9,O=C(NCc1cccc(Cl)c1)c1ccc2c(c1)OCO2,"inconclusive [inhibitor, single point]"
10,CCCOc1cccc(C(=O)Nc2cccc(NC(=O)c3ccc(Cl)cc3Cl)c2)c1,"inconclusive [inhibitor, partial curve, poor fit]"
11,Cc1cccc(SCC(=O)Nc2ccccc2[N+](=O)[O-])c1,"inconclusive [inhibitor, single point]"
12,CSc1cccc(NC(=S)N(CCC(C)C)C2CCN(C(C)=O)CC2)c1,"inconclusive [inhibitor, single point]"
13,CC(=O)c1ccc(Cc2ncc(C(F)(F)F)cc2Cl)s1,"inconclusive [inhibitor, partial curve, poor fit]"
14,COCCNC(=O)C1CCN(S(=O)(=O)N2CCC3(CC2)OCCO3)CC1,inactive
15,NNC(=O)c1cc2c(ccc3ccccc32)o1,inactive
16,CCSc1nc2ccccc2c(OCc2cc(C(=O)OC)ccc2OC)c1C(=O)OC,"inconclusive [inhibitor, single point]"
17,O=C1C=C(c2ccc(OC(F)(F)F)cc2)C[C@@H](c2ccc(F)cc2)C1,"inconclusive [inhibitor, partial curve, poor fit]"
18,COc1ccc(N2C(=O)C(CN3CCCCC3)C2c2ccccc2)cc1 (stereo not given),"inconclusive [inhibitor, partial curve, poor fit]"
19,CCN(CCCNC(=O)c1cc2c(-c3cccc(OC)c3)nn(C)c2s1)Cc1ccccc1,"inconclusive [inhibitor, partial curve, poor fit]"
20,COC(=O)Cc1ccc(NC(=O)C(c2ccccc2)c2ccccc2)cc1,"inconclusive [inhibitor, single point]"
21,Cc1ccc(N(C(C)C(=O)Nc2cc(Cl)ccc2Oc2ccccc2)S(C)(=O)=O)cc1 (stereo not given),"inconclusive [inhibitor, partial curve, poor fit]"
22,Clc1ccccc1C1CC(c2ccccc2)=Nc2ccccc2N1 (stereo not given),"inconclusive [inhibitor, partial curve, poor fit]"

row,SMILES,Potency
1,CCOC(=O)Cn1c(=O)oc2cc(S(=O)(=O)N3CCN(c4ccc(F)cc4)CC3)ccc21,inactive
2,Cc1cc(C)c2sc(N(CCCN(C)C)C(=O)c3ccc(S(=O)(=O)N(C)Cc4ccccc4)cc3)nc2c1,active: 11.2 µM
3,COc1cc(CN(C)CCc2ccccc2)ccc1OCc1ccccc1,"inconclusive [inhibitor, single point]"
4,O=c1ccc(/C=C/c2ccccc2)nn1Cc1ccccc1,"inconclusive [inhibitor, single point]"
5,Cc1cccc(C)c1OC(=O)CSc1nnc(-c2ccc3c(c2)OCO3)o1,inactive
6,O=C(Nc1ccnn1C1CCN(Cc2cccnc2)CC1)c1ccccc1Cl,inactive
7,Cn1cccc1-c1cc(C(=O)N/N=C/C=C/c2ccccc2)[nH]n1,"inconclusive [inhibitor, single point]"
8,COc1ccc(Cl)cc1NC(=O)C(C)N(C)Cc1ccc(C(F)(F)F)cc1 (stereo not given),active: 8.91 µM
9,CNC(=O)NC(=O)COC(=O)c1cccc(S(=O)(=O)N2CC3(C)CC2CC(C)(C)C3)c1 (stereo not given),"inconclusive [inhibitor, partial curve, poor fit]"
10,CSc1nn(CC(=O)Nc2cc(C)ccc2C)c(N)c1S(=O)(=O)c1ccccc1,"inconclusive [inhibitor, partial curve, poor fit]"
11,CN=c1nc(-c2ccccc2)n(-c2ccccc2)s1,inactive
12,COc1ccc(Cl)cc1NC(=O)CSc1nnc(Cc2cccn2C)n1-c1ccc(F)cc1,"inconclusive [inhibitor, partial curve, poor fit]"
13,Cc1cc(C)n(CCNC(=O)c2cc(COc3ccc(F)cc3Cl)on2)n1,"inconclusive [inhibitor, partial curve, poor fit]"
14,CC(C)(C)N(Cc1ccc2c(c1)OCO2)C(=O)/C=C\S(=O)c1ccccc1 (stereo not given),"inconclusive [inhibitor, full curve, poor fit]"
15,COc1ccccc1N1CCN(S(=O)(=O)CCNC(=O)c2cccc(F)c2)CC1,"inconclusive [inhibitor, partial curve, poor fit]"
16,COc1ccc(C2CC(c3ccccc3)Nc3nc(NC(=O)c4ccco4)nn32)cc1 (stereo not given),inactive
17,Cc1ccc(OCC(=O)Nc2ccc(O)c(C(=O)O)c2)cc1C,inactive
18,CCc1nc2ccc(C(=O)N(C)Cc3ccco3)cn2c1N(C)CCCc1ccccc1,"inconclusive [inhibitor, single point]"
19,CCc1sc(NC(=O)COC)nc1-c1ccccc1,"inconclusive [inhibitor, single point]"
20,O=C(N[C@H]1CCC(=O)N([C@H](CSc2ccccc2)Cc2ccccc2)CC1)OCc1ccccc1,"inconclusive [inhibitor, partial curve, poor fit]"
21,Cc1cccc(C)c1N1C(=O)C(Cl)=C(N2CCCC2)C1=O,"inconclusive [inhibitor, single point]"
22,COc1ccccc1N(CC(=O)NCCC1=CCCCC1)S(=O)(=O)c1ccccc1,"inconclusive [inhibitor, single point]"

row,SMILES,Potency
1,O=C(c1cccc(S(=O)(=O)N2CCN(c3ccc(F)cc3)CC2)c1)N1CCN(c2ccccc2O)CC1,"inconclusive [inhibitor, single point]"
2,Cc1ccc(Cn2c(CN3CCN(c4cccc(Cl)c4)CC3)nc3c2c(=O)n(C)c(=O)n3C)cc1,"inconclusive [inhibitor, single point]"
3,O=[N+]([O-])c1ccc(O)c(-c2ccnc3cc(-c4ccccc4)nn23)c1,"inconclusive [inhibitor, partial curve, poor fit]"
4,Cc1ccc(CS(=O)(=O)c2ncc(Cl)c(C(=O)Nc3ccc(OC(F)F)cc3)n2)cc1,"inconclusive [inhibitor, single point]"
5,COC(=O)N/N=C/c1cn(Cc2ccccc2F)c2ccccc12,"inconclusive [inhibitor, partial curve, poor fit]"
6,CCc1ccccc1-n1nnnc1-c1cnccc1C(F)(F)F,"inconclusive [inhibitor, single point]"
7,C=CCOC(=O)C1=C(C)NC(SCC(=O)Nc2ccccc2)=C(C#N)C1c1ccco1 (stereo not given),"inconclusive [inhibitor, partial curve]"
8,CN(C)CCOCCOc1ccc(Cl)c2ccccc12,"inconclusive [inhibitor, full curve, poor fit]"
9,O=C(/C(=C/c1cccc(Cl)c1)c1nc2ccccc2[nH]1)c1ccccc1,"inconclusive [inhibitor, partial curve, poor fit]"
10,COc1ccc(C(C)=O)cc1CSc1nnc(Nc2c(C)cccc2C)s1,"inconclusive [inhibitor, single point]"
11,N#CCCn1cc(/C=N/NC(N)=S)c(-c2ccc(Br)cc2)n1,inactive
12,Cn1c(C(=O)NCc2cccc(Cl)c2)cc2oc3ccccc3c21,"inconclusive [inhibitor, full curve]"
13,CC(Sc1cccc[n+]1[O-])C(=O)Nc1cccc(S(=O)(=O)N2CCOCC2)c1 (stereo not given),"inconclusive [inhibitor, single point]"
14,Cc1ccc(C(C(=O)NCc2ccccc2)N(Cc2cccs2)C(=O)c2ccc3c(c2)OCCO3)cc1 (stereo not given),"inconclusive [inhibitor, full curve, poor fit]"
15,COc1ccc(C(=O)NC(=S)Nc2ccc(CN3CCOCC3)cc2)cc1Br,active: 12.6 µM
16,Cc1cc(C)n(-c2ccc(C(=O)Nc3ccc4c(c3)OCO4)cc2)n1,"inconclusive [inhibitor, single point]"
17,COc1ccc(CNC(C)CCc2ccccc2)cc1 (stereo not given),inactive
18,COc1ccc(CNC(=O)c2ccc(Cl)c(S(=O)(=O)N3CCCCCC3)c2)cc1,active: 10 µM
19,COc1cc(Cl)c(C)cc1NC(=O)CSc1sc2c(O)cc(=O)[nH]c2c1C#N,inactive
20,COC(=O)c1sccc1NC(=O)CSc1ccccc1NS(=O)(=O)c1ccc(F)cc1,"inconclusive [inhibitor, partial curve, poor fit]"
21,O=C(/C=C/c1cccc([N+](=O)[O-])c1)Nc1cccc(NC(=O)c2cccs2)c1,"inconclusive [inhibitor, single point]"

# From PubChem BioAssay AID624417 (National Center for Advancing Translational Sciences (NCATS), 2012)
